# In all, about 300,000 compounds went through this assay and about 22,000 (7.3%) were called active. The inconclusive results got no clear call from the source; some entries with a clear call stand among them for comparison. Cut-off read from the data, not from the text of the source: active = activity score below about -60%; inconclusive = mostly about -28% to -61%; inactive = positive scores.
# Test: Activators via SNCA 5'UTR binding, MLPCN (AID 1814)
# Details: alpha-synuclein 5'UTR reporter, activators screen; stronger effect = lower value; tested at 7.5 µM
row,Structure (SMILES),activity score
1,Cc1nc2cc(NC(=O)c3cccc(S(C)(=O)=O)c3)ccc2o1,inconclusive: -35.7%
2,Cc1cc(C(=O)CSc2n[nH]c(N)n2)c(C)n1-c1ccccc1,active: -111%
3,COc1ccccc1CNCC(=O)Nc1ccc(N(C)C)cc1,inconclusive: -58.1%
4,CN1CCN(C(=O)c2cnn(-c3ccccc3)c2NC(=O)c2ccc([N+](=O)[O-])cc2)CC1,inconclusive: -27.8%
5,Cc1nc(OCc2ccccc2)c2sc3nc4c(cc3c2n1)COC(C)(C)C4,active: -185%
6,CCC(C)(O)c1[nH]c2ccc(C(=O)OC)cc2c1C (stereo not given),inconclusive: -52.9%
7,CCN1CCN(Cc2ccc(OCc3ccccc3)cc2)CC1,active: -77.3%
8,Cc1ccc(Cn2c(CCNc3nc(-c4ccc(Cl)c([N+](=O)[O-])c4)cs3)nc3cc(Cl)c(Cl)cc32)cc1,active: -77.9%
9,S=C(NCCc1ccccc1)Nc1ccccc1,active: -89.3%
10,Nc1ccc(S(=O)C(F)(F)F)cc1 (stereo not given),inconclusive: -32%
11,O=C(Nc1nnc(C2CCCC2)s1)C1CCC1,inconclusive: -54.5%
12,COc1cccc(-c2noc(-c3ccoc3C)n2)c1,active: -212%
13,COC(=O)c1ccc(C)c(NS(=O)(=O)c2ccc3c(c2)OCCO3)c1,inactive: 93.5%
14,COc1ccccc1-c1nnc(NC(=O)C(C)SC2=NCCS2)s1 (stereo not given),inconclusive: -59.4%
15,Cc1ccc(C)c(NC(=S)N=Nc2c(O)n(C)c3ccc(S(=O)(=O)N4CCOCC4)cc23)c1,inactive: 77.8%
16,Cc1ccc(S(=O)(=O)N(C)C)cc1NC(=O)COC(=O)/C=C/c1ccc2ccccc2n1,inconclusive: -58.1%
17,Cc1cn2c(N)c(/C=C3\C=Nc4ccccc43)c(=O)nc2s1,inconclusive: -53.9%
18,COc1cccc(/C=C2\SC(=S)N(CCC(=O)N3CCCCC3)C2=O)c1,inconclusive: -50.6%
19,O=Cc1ccc(Oc2cnccn2)cc1,inconclusive: -17.3%
20,Clc1nc2c(ccc3ccccc32)[nH]1,inconclusive: -54.2%
21,C=CCn1c(O)c(N=NC(=S)Nc2ccccc2F)c2cc(S(=O)(=O)N3CCOCC3)ccc21,inactive: 77.9%
22,C/C(=N\Nc1ccc2nncn2n1)c1ccc(Cl)s1,inconclusive: -55.4%
23,Cc1cc(C(=O)NNC(=O)CCCCC(=O)NNC(=O)c2cc(C)[nH]n2)n[nH]1,inconclusive: -56%
24,Cc1ccccc1OCc1nc2ccccc2[nH]1,active: -138%

row,Structure (SMILES),activity score
1,CC(C)C(C(=O)Nc1nccs1)c1ccc(Cl)cc1 (stereo not given),inactive: 58.4%
2,CCn1c(CSc2nc3ccccc3s2)nnc1SCC(=O)OC(C)(C)C,inconclusive: -35.5%
3,CC(C)Cc1csc(NC(=O)c2ccc(F)cc2)c1C(=O)O,inconclusive: -34.9%
4,COC(=O)c1ccc(CSc2nnc(Nc3cccc(OC)c3)s2)o1,inconclusive: -42.1%
5,O=C(Nc1cccn2ncnc12)c1cccc(C(F)(F)F)c1,inconclusive: -58.5%
6,COC(=O)c1ccc(N=NN2CCCCCC2)cc1,active: -134%
7,O=C(O)c1ccc2c(c1)C(=O)N(c1ccc(C(=O)OCC(=O)c3ccccc3)cc1)C2=O,active: -62.5%
8,COc1ccc(/C=C/C(=O)N(C(C)C)C(C)C)cc1Br,inconclusive: -59.9%
9,Cc1cccc(N=Nc2ccc(O)c3ncccc23)c1,inactive: 73%
10,CCN1CCN(c2cc3c(cc2F)c(=O)c(C(=O)O)cn3C2CC2)CC1,inconclusive: -27.4%
11,CCN(CC)c1ccc(N=Cc2c(C)[nH]c3ccccc23)cc1,inactive: 63.4%
12,CCSc1nc(N)nc(-c2cccs2)c1C#N,inconclusive: -60.2%
13,CN(C)CC/C=C1\c2ccc(F)cc2Sc2cc(F)c(Cl)cc21,inactive: 103%
14,N#Cc1nc(-c2ccc(Cl)cc2)oc1NCC1CCCO1 (stereo not given),inconclusive: -58.2%
15,COCCNC(=S)N/N=C(\C)c1ccccc1O,active: -161%
16,COc1ccc(-n2cnc3cc(C(=O)N4CCOCC4)ccc32)cc1,inconclusive: -51.7%
17,CC(=O)c1ccc(NC(=S)N2CCCCCC2)cc1,inconclusive: -50.2%
18,Clc1ccc(/C=C/c2nc3ccccc3[nH]2)cc1,inactive: 60.9%
19,COc1cccc(-c2nnc(SCC(=O)N(C(C)C)C(C)C)o2)c1,inconclusive: -50%
20,O=C(NCCc1cccc(Cl)c1)c1cccs1,active: -115%
21,Cc1ccc(NC(=O)c2cncc(Br)c2)c([N+](=O)[O-])c1,inconclusive: -60.8%
22,CCC(=O)Nc1nc2ccccc2n1Cc1ccccc1C,inactive: 65.5%
23,O=C(CSCc1cccc(F)c1)NCc1ccccc1,active: -74.8%
24,O=C(Oc1ccc(-c2csnn2)cc1)C1CC1,inconclusive: -52.3%

row,Structure (SMILES),activity score
1,Cc1ccc(-c2nc3ccccc3s2)cc1NC(=S)NC(=O)c1ccccc1,active: -116%
2,CC1CCN(CCCOc2ccc(Cl)cc2Br)CC1,inconclusive: -54.7%
3,Cc1ccc2nc(NC(=O)CSCC(=O)OCC(=O)c3ccc(Br)cc3)sc2c1,inactive: 82.9%
4,Cc1ccc(NC(=O)CN(C)S(=O)(=O)c2cccs2)cc1F,active: -63.8%
5,COc1ccc(OC)c(-c2csc(NC(=O)Cc3ccccc3)n2)c1,inconclusive: -56%
6,Cn1c(=O)c(C(=O)NCc2ccccc2)c(O)c2ccccc21,active: -74%
7,O=C(Nc1nc2ccc(S(=O)(=O)N3CCCC3)cc2s1)C1CCCCC1,inactive: 72.5%
8,O=C(CC(c1ccccc1)c1ccccc1)Nc1ccc(Cl)cn1,inconclusive: -60%
9,Nc1ccc(C(=O)N/N=C/c2cn(Cc3ccccc3F)c3ccccc23)cc1,inactive: 72.4%
10,O=C(CC1Nc2ccccc2NC1=O)Nc1ccccc1 (stereo not given),active: -128%
11,COc1ccc(Nc2nc(-c3cc4cccc(OC)c4oc3=O)cs2)cc1,active: -83%
12,Cc1oc2c(c1C(=O)c1ccc(Cl)cc1)C(=O)C(=O)c1ccccc1-2,active: -87%
13,Cc1nc2sc(-c3ccccc3)cc2c(=O)n1N,inactive: 75.4%
14,COc1ccc(/C=C/C(O)=C2/C(=O)N(C)C3(C)CC2c2ccccc2O3)cc1 (stereo not given),inconclusive: -60.2%
15,COc1cc(OC)c(NC2=CC(=O)C(=O)c3ccccc32)cc1Cl,inactive: 107%
16,CC(CC12CC3CC(CC(C3)C1)C2)NCc1ccccc1O (stereo not given),inconclusive: -48.2%
17,Cc1cc(C)cc(NC2=NC3(CCCCC3)N=C(N)N2)c1,inconclusive: -54%
18,COc1ccc(NC(=O)c2ccco2)c([N+](=O)[O-])c1,active: -75.8%
19,Cc1ccc(CNC(=O)c2ccc3c(=O)c(O)c(-c4ccc(C)cc4)[nH]c3c2)cc1,inactive: 93.7%
20,CCn1c(C)cs/c1=N\C(=S)Nc1ccccc1C,inconclusive: -38.7%
21,Cc1c(N=C/C=C/c2ccccc2)cnn1C,inconclusive: -49.8%
22,O=C(CSc1nnc(NC(=O)c2ccc(F)cc2)s1)NC1CCCC1,inconclusive: -57.1%
23,O=C(c1csc2ccccc12)N1CCCCCC1,inconclusive: -31%
24,COc1ccc(/C=C\c2nc(=O)c3ccccc3o2)cc1,inconclusive: -61.5%

row,Structure (SMILES),activity score
1,O=C1c2ccccc2S(=O)(=O)N1CC1CC(c2ccccc2)=NO1 (stereo not given),active: -144%
2,CC1CC/C(=N/Nc2ccccc2)C(=O)N1 (stereo not given),inconclusive: -53.5%
3,COc1ccc(C2=NOC(C(=O)NCc3ccc(F)cc3)C2)cc1OC (stereo not given),inactive: 81.5%
4,CCc1ccc(NC(=O)c2cc(C)no2)cc1,inconclusive: -59%
5,O=C(N/N=C/c1ccc([N+](=O)[O-])o1)c1cn(-c2ccccc2)nc1-c1ccc(F)cc1,inconclusive: -56.2%
6,NC(=O)c1c(Nc2nc3c(F)cccc3s2)sc2c1CCCC2,inconclusive: -59%
7,N#Cc1nc(-c2ccccc2F)oc1NCCc1ccccc1,inconclusive: -49.6%
8,CCOC(=O)c1ccc2c(c1)[nH]c(=S)n2CC,active: -64.2%
9,COc1ccc(C(=O)/C=C/c2ccc(N3CCCCC3)c([N+](=O)[O-])c2)cc1,inconclusive: -57.8%
10,Fc1ccc(COc2cccc3cccnc23)cc1,active: -141%
11,O=C(CCCCCN1C(=O)c2cccc3cccc(c23)C1=O)NCc1cccnc1,inactive: 59.2%
12,O=C(CN1C(=O)c2ccccc2S1(=O)=O)c1ccc(OC(F)F)cc1,inactive: 86.4%
13,CC(=O)Nc1ccc(NC2=C/C(=N/S(=O)(=O)c3cccs3)c3ccccc3C2=O)cc1,inactive: 82.6%
14,CCn1c(=S)[nH]c2cc(S(=O)(=O)N3CCCCC3)ccc21,inconclusive: -53.1%
15,[O-]/[N+](=C\c1ccncc1)c1ccccc1,inconclusive: -39%
16,Cc1cc(C)c2[nH]c(=O)c(CN(Cc3cccs3)C(=S)NCc3ccco3)cc2c1,inconclusive: -34.4%
17,COc1c(N2CCN(C(=S)Nc3ccccc3F)C(C)C2)c(F)cc2c(=O)c(C(=O)O)cn(C3CC3)c12 (stereo not given),inconclusive: -60.5%
18,Cn1c(NC(=O)c2ccccc2)nc2ccccc21,inconclusive: -53.9%
19,C=CCOc1ccc(C2CC(C)=NN2c2ccccc2)cc1 (stereo not given),inconclusive: -55.6%
20,Cc1cc(SCC(=O)N(C)c2c(N)n(Cc3ccccc3)c(=O)[nH]c2=O)nc2ccccc12,inconclusive: -53.9%
21,COc1ccc(N/N=C(/N=Nc2nc(C)cc(=O)[nH]2)c2ccccc2)cc1,inactive: 85.1%
22,CC(=O)c1c(C)[nH]c(C(=O)Nc2ccc(C)cc2Br)c1C,active: -131%
23,O=C(Nc1cccn(Cc2c(Cl)cccc2Cl)c1=O)c1ccc(Cl)cc1,inconclusive: -56.6%
